# Reference: the BET-seq Pho4 binding data (Le et al. 2018)
# The list shows a part of the results. The energies were worked out here from pooled read counts, against the library average; single values are noisy.
# Molecular target: T1, Pho4 (S. cerevisiae) (UniProt P07270)
# T1 sequence: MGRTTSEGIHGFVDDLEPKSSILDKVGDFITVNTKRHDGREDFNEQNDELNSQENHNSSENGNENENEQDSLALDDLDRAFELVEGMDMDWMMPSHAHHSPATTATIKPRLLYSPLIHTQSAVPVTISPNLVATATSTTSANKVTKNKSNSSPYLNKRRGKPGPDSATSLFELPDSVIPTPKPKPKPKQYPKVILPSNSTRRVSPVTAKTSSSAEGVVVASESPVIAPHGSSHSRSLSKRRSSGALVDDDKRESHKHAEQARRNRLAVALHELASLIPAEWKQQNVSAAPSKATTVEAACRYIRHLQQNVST
# Test: relative binding free energy (BET-seq); higher = weaker binding
# Details: reference: library average
row,Sequence,relative binding free energy
1,ACTGGCACGTGTGGGG,-0.1 kcal/mol
2,TGGTGCACGTGAGGGC,0.23 kcal/mol
3,TAGTGCACGTGATACG,-0.01 kcal/mol
4,TTTGGCACGTGGTTTG,-0.06 kcal/mol
5,ATTCGCACGTGTACGG,0.02 kcal/mol
6,TTTATCACGTGTCTGG,-0.04 kcal/mol
7,CCATGCACGTGGGTTG,-0.22 kcal/mol
8,ACTGGCACGTGCGGGG,-0.16 kcal/mol
9,AGGCACACGTGGGTAT,-0.08 kcal/mol
10,AGATTCACGTGAAGGA,0.32 kcal/mol
11,AGTTACACGTGGGACT,0.09 kcal/mol
12,TATTTCACGTGGAGAG,0.27 kcal/mol
13,TCGGACACGTGTGTAG,0.07 kcal/mol
14,GTTTGCACGTGATGTA,0.09 kcal/mol
15,AGTACCACGTGGCGGT,-0.21 kcal/mol
16,TTAGCCACGTGGGGTG,-0.31 kcal/mol
17,GTGAACACGTGTAGGA,0.12 kcal/mol
18,TTAGTCACGTGTTTAC,-0.02 kcal/mol
19,AGTAACACGTGAATGT,0.27 kcal/mol
20,GCTTTCACGTGAGGAG,0.42 kcal/mol
21,TGATTCACGTGATGGT,0.44 kcal/mol
22,TAGCGCACGTGTTTTT,-0.13 kcal/mol
23,CGTGGCACGTGGTTGG,-0.08 kcal/mol
24,AGTTACACGTGGCGCT,0.09 kcal/mol
25,ATTTTCACGTGTCAGG,0.13 kcal/mol

row,Sequence,relative binding free energy
1,TAAGTCACGTGAGGTC,0.38 kcal/mol
2,CGTAGCACGTGTTGAT,-0.04 kcal/mol
3,TTTCGCACGTGGATTG,-0.01 kcal/mol
4,GTATGCACGTGTGGCA,-0.11 kcal/mol
5,AGAGTCACGTGAAATT,0.32 kcal/mol
6,TTGTGCACGTGCCGGT,-0.09 kcal/mol
7,TATTTCACGTGAAAAT,0.42 kcal/mol
8,TGAAGCACGTGGTAAA,0 kcal/mol
9,TTTTGCACGTGTACCG,0.09 kcal/mol
10,AGATACACGTGATGTG,0.09 kcal/mol
11,GGAGACACGTGCGGTT,0.01 kcal/mol
12,GGGCGCACGTGGCTGG,-0.2 kcal/mol
13,CGGTGCACGTGGGCTT,-0.2 kcal/mol
14,GCGGTCACGTGGCGTG,0.05 kcal/mol
15,TTTTGCACGTGTGTCT,0.11 kcal/mol
16,TCTGGCACGTGAATTG,0.1 kcal/mol
17,GTGGCCACGTGGTGGA,-0.08 kcal/mol
18,GGTGTCACGTGCGCGT,0.01 kcal/mol
19,CTTAGCACGTGGGTAA,-0.24 kcal/mol
20,TTGTGCACGTGTTGTA,0 kcal/mol
21,TGAGACACGTGGCGAA,0.17 kcal/mol
22,TACATCACGTGGGGGT,-0.02 kcal/mol
23,ACGGCCACGTGGGGTG,-0.25 kcal/mol
24,GAATGCACGTGGGGAA,-0.08 kcal/mol
25,GTGTTCACGTGATAGG,0.45 kcal/mol

row,Sequence,relative binding free energy
1,ATAGGCACGTGTAAGG,0.03 kcal/mol
2,TTCGGCACGTGTCGTA,-0.04 kcal/mol
3,TTGGTCACGTGAATAT,0.29 kcal/mol
4,AGCATCACGTGGGGTC,0.12 kcal/mol
5,TAGGACACGTGGTATG,-0.06 kcal/mol
6,TTTAGCACGTGGTCTA,-0.21 kcal/mol
7,AGTGGCACGTGCAGAG,-0.09 kcal/mol
8,GTAAGCACGTGGGCAT,-0.23 kcal/mol
9,AGTCGCACGTGTGATT,0.07 kcal/mol
10,GCTAGCACGTGGTAGG,-0.02 kcal/mol
11,AGGTGCACGTGCAAGG,-0.1 kcal/mol
12,TGGTGCACGTGTGCAA,0.05 kcal/mol
13,GTATGCACGTGTGATC,0.3 kcal/mol
14,TTGATCACGTGGCAGT,-0.02 kcal/mol
15,GTATACACGTGTTTAA,0.05 kcal/mol
16,CGGGACACGTGCGGGA,-0.08 kcal/mol
17,TTTGGCACGTGCTAGG,-0.19 kcal/mol
18,TATGACACGTGTCGGT,-0.21 kcal/mol
19,TGGATCACGTGGTCTG,0.09 kcal/mol
20,GGTGGCACGTGGGATC,-0.07 kcal/mol
21,ATTTCCACGTGGTATT,0 kcal/mol
22,GAGGTCACGTGAAGGG,0.37 kcal/mol
23,TTGTTCACGTGATTCA,0.35 kcal/mol
24,AATGTCACGTGTACTG,0.01 kcal/mol
25,CAATGCACGTGAGGGG,0.2 kcal/mol

row,Sequence,relative binding free energy
1,GGTAGCACGTGATCTG,0.08 kcal/mol
2,TTGTTCACGTGGACTT,0.3 kcal/mol
3,TTTGACACGTGGAGCG,0.03 kcal/mol
4,GCTTGCACGTGTGGGA,0.02 kcal/mol
5,ATCATCACGTGTGTGG,0.04 kcal/mol
6,GGAAACACGTGTTAGG,-0.07 kcal/mol
7,TTTATCACGTGTTTGT,0.22 kcal/mol
8,TTTTTCACGTGATAAA,0.34 kcal/mol
9,GTAAGCACGTGTGCAG,0.06 kcal/mol
10,TGCGGCACGTGGGACT,-0.21 kcal/mol
11,GCAGTCACGTGGTCGT,0.16 kcal/mol
12,TTCGGCACGTGTAATT,0.2 kcal/mol
13,GGAGGCACGTGGCTAG,-0.05 kcal/mol
14,TAATTCACGTGTAATT,0.27 kcal/mol
15,TTTAGCACGTGAGTGC,0.12 kcal/mol
16,TCAGGCACGTGGCGCG,-0.15 kcal/mol
17,CGGAACACGTGAGTGT,0.24 kcal/mol
18,TGTGGCACGTGTGAGG,-0.01 kcal/mol
19,CGTGGCACGTGAGTAG,0.02 kcal/mol
20,GAATTCACGTGTATGC,0.37 kcal/mol
21,GATAGCACGTGGCGTG,-0.19 kcal/mol
22,AGTAACACGTGGGATT,-0.06 kcal/mol
23,TCTGTCACGTGTATAG,0.09 kcal/mol
24,GTTCGCACGTGCGTTT,0 kcal/mol
25,TAATGCACGTGTTAGC,-0.05 kcal/mol

row,Sequence,relative binding free energy
1,TGTGGCACGTGTAAAC,0.07 kcal/mol
2,GGTATCACGTGGGCAG,0.07 kcal/mol
3,GTGCTCACGTGTCGGA,0.41 kcal/mol
4,CATCTCACGTGGGGGT,0.06 kcal/mol
5,TCTGGCACGTGTAGGG,-0.02 kcal/mol
6,TGTGACACGTGTTAGT,-0.08 kcal/mol
7,TTATACACGTGAGTTG,0.05 kcal/mol
8,TGATGCACGTGCATGG,0.01 kcal/mol
9,CATGTCACGTGGTGCG,0.11 kcal/mol
10,TCATTCACGTGTGTGC,0.32 kcal/mol
11,TATCTCACGTGGGGCT,0.11 kcal/mol
12,TTATGCACGTGAAATG,0.16 kcal/mol
13,GGGGCCACGTGCTGGG,-0.09 kcal/mol
14,TAGTCCACGTGGATGG,0 kcal/mol
15,GGTGGCACGTGGGGCT,-0.12 kcal/mol
16,GTGTTCACGTGAAGGG,0.43 kcal/mol
17,TTGGGCACGTGGTCCG,-0.23 kcal/mol
18,TAGGACACGTGTTTGA,-0.01 kcal/mol
19,TTTCTCACGTGTTCTT,0.37 kcal/mol
20,GCCGGCACGTGGGTGT,-0.3 kcal/mol
21,AGGGTCACGTGTTGTC,0.12 kcal/mol
22,TTTTTCACGTGATGCG,0.28 kcal/mol
23,AAGGGCACGTGGGGTC,-0.27 kcal/mol
24,TTTGGCACGTGCATGA,-0.34 kcal/mol
25,GTTAACACGTGTGATG,0.02 kcal/mol

row,Sequence,relative binding free energy
1,TTAGGCACGTGTTGAG,-0.09 kcal/mol
2,TATGTCACGTGCGAGG,-0.02 kcal/mol
3,AGGGTCACGTGTGGAC,0.2 kcal/mol
4,TGTGTCACGTGGCTTC,0.07 kcal/mol
5,TTCTTCACGTGATGGT,0.31 kcal/mol
6,GATGTCACGTGGCGTA,0.06 kcal/mol
7,ATCTTCACGTGTGGTA,0.3 kcal/mol
8,GGACGCACGTGAGAGG,0.09 kcal/mol
9,GTTGGCACGTGACGGG,0.05 kcal/mol
10,TAGTGCACGTGTTTCG,-0.05 kcal/mol
11,TTAAACACGTGAGTTG,0.29 kcal/mol
12,TTGGCCACGTGGTGTT,-0.1 kcal/mol
13,TAGGTCACGTGGGCCT,0.01 kcal/mol
14,ATGGCCACGTGCGTTG,-0.08 kcal/mol
15,GTAAGCACGTGCTGGT,-0.11 kcal/mol
16,GATTACACGTGAGGTT,0.36 kcal/mol
17,GTTCGCACGTGGGTCA,-0.17 kcal/mol
18,TGATGCACGTGTGCTG,0.11 kcal/mol
19,TGAATCACGTGTGGTG,0.17 kcal/mol
20,GTAAACACGTGGTGGA,0.08 kcal/mol
21,AGTTTCACGTGATCGT,0.29 kcal/mol
